# In all, about 110,000 compounds went through this assay and about 230 (0.21%) showed an effect of 50% or more. Some of the results follow.
# Target: DPAP1 (Plasmodium falciparum, UniProt Q8IIJ9)
# Test: primary screen, percent inhibition; read by cleavage of a fluorogenic dipeptide substrate; higher = more effect of the substance
# Set-up: species or system P. falciparum D10 trophozoite lysates; single well
# 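Note: 30 min substrate incubation versus DMSO and 10 µM JCP410 controls.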
# Chain of DPAP1 (Q8IIJ9 whole entry, looked up): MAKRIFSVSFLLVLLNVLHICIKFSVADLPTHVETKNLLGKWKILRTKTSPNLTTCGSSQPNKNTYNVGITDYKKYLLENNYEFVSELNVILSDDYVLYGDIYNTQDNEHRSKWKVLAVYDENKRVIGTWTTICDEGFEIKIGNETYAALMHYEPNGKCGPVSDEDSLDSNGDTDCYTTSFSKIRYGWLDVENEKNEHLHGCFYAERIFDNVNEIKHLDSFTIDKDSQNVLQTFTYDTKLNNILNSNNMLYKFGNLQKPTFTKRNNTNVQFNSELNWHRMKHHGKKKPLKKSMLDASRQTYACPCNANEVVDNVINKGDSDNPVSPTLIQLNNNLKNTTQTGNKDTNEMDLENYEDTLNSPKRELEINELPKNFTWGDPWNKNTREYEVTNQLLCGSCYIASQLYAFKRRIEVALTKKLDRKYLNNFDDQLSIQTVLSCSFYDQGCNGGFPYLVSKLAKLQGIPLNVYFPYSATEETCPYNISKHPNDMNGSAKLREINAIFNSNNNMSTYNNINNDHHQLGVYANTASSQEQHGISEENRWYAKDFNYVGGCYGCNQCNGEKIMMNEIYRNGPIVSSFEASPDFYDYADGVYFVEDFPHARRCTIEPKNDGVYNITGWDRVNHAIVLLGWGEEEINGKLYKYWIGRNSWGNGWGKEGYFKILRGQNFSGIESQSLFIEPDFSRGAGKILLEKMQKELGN
row,SMILES,% Inhibition @ 10 uM [%]
1,Cc1ccc2oc(C(F)F)cc(=O)c2c1,-3.4
2,N#CCNC(=O)[C@H](Cc1cc(I)c(O)c(I)c1)NC(=O)c1ccc(N2CCOCC2)cc1,-3.04
3,COc1cccc(C(=O)Nc2ccc(C)cc2Br)c1,-2.22
4,Cc1ccc(C)c(Cc2c(C)nc(C)nc2O)c1,-5.1
5,COc1ccc(CCNC(=O)OCc2ccccc2)cc1OC,-5.4
6,CCOC(=O)c1c(C)nc2ccccc2c1N,0.231
7,O=C1C2C3CCC(O3)C2C(=O)N1c1ccc(-c2ccc(Cl)cc2)cc1 (centres unmarked),-2.77
8,O=C1C2C3C=CC(C2C(=O)N1c1nccs1)C1C(=O)N(c2nccs2)C(=O)C31 (centres unmarked),-0.969
9,CC(C)(C)C(=O)NCC(c1cccnc1)N1CCOCC1 (centres unmarked),-0.719
10,C=C(C)Cn1c(CCNC(=O)c2cc(OC)c(OC)c(OC)c2)nc2ccccc21,2.83
11,C=CCn1c(=N)c(S(=O)(=O)c2ccc(Cl)cc2)cc2c(=O)n3cccc(C)c3nc21,5.12
12,Cc1cccc(NC(=O)c2ccc(OC(F)F)cc2)c1C,1.87
13,Cc1ccc(-n2c3c(c(=O)[nH]c2=O)C(NC(=O)c2ccc(F)cc2)(C(F)(F)F)C(=O)N3)cc1 (centres unmarked),-7.18
14,CCOc1ccc(CNCCc2ccc(OC)c(OC)c2)cc1,1.26
15,Cc1onc(-c2ccccc2Cl)c1-c1nc(-c2ccc3c(c2)OCO3)no1,-1.85
16,CC1(C)C(C=C(Cl)Cl)C1C(=O)Nc1cccc(C(=O)O)c1 (centres unmarked),-5.16
17,CC(=O)NCC12CC3CC(C1)CC(C(=O)O)(C3)C2,-3.1
18,CCOC(=O)C1=CN(Cc2ccc(OC)cc2)C=C(C(=O)OCC)C1c1cccs1,-3.23
19,Cc1c(C(=O)NCCCN2CCCC2=O)oc2ccc(S(=O)(=O)N3CCCCC3)cc12,-1.34
20,Cc1ccc(C)c(NC(=O)CCC(=O)Nc2cc(C)ccc2C)c1,2.01
21,CC1(C)CC2(CCO1)OC(=O)CC2C(=O)NCc1ccco1 (centres unmarked),-0.386
22,COc1ccc(C(=O)N2CCc3cc(OC)c(OC)cc3C2COc2ccccc2OC)cc1OC (centres unmarked),-1.62
23,COC(=O)c1cnn2c(O)c(C(C)C)c(C)nc12,-5.8
24,CC[C@H](NC(=O)C(Cc1c(F)cccc1F)NC(=O)c1cc(-c2ccccc2)c(-c2ccccc2)s1)C(=O)c1nc2ccccc2o1 (some centres unmarked),-6.98
25,CCOC(=O)C1CCN(CC(C)CCC=C(C)C)CC1 (centres unmarked),2.1
26,N#C/C(=C\c1ccc(Cl)cc1Cl)c1nc(-c2ccc(Cl)c(Cl)c2)cs1,-4.08

row,SMILES,% Inhibition @ 10 uM [%]
1,CC1(C)CC2=Nc3ncnn3C(c3ccccc3F)C2=C(O)C1 (centres unmarked),0.778
2,CC(NC(=O)Cn1ncc2c(Cl)cccc21)c1ccccc1 (centres unmarked),-1.11
3,Cc1ccc(Oc2cc(-n3nc(C)c(C#N)c3N)ncn2)cc1,-6.08
4,CN1CCc2nc3sc4c(=O)[nH]c(=O)[nH]c4c3c(-c3cccs3)c2C1,1.17
5,CCOc1ccc(CC(=O)C2=C(NCC(=O)O)CC(C)(C)CC2=O)cc1OCC,-0.834
6,O=C(Nc1nc2ccccc2s1)C1CC=CCC1C(=O)OCC(Cl)=C(Cl)Cl (centres unmarked),-3.66
7,O=C1C(Cl)=C(Nc2cccc(O)c2)C(=O)N1c1ccccc1Cl,-0.413
8,c1ccc(N2CCN(Cc3cccs3)CC2)cc1,-0.192
9,CC1(C)CC(=O)C(=CN2CCOCC2)C(=O)C1,-3.21
10,O=C(COc1ccc(Cl)cc1)Nc1ccc(CN2CCOCC2)cc1,-1.63
11,COCCNC(=O)C(NC(=O)C1CCC(C)CC1)C(C)C (centres unmarked),-4.86
12,COc1ccc(OCCCCN2CCCCC2)cc1,3
13,c1ccc(N[n+]2ccc3ccccc3c2)nc1,-2.74
14,COc1cc(CN2CCN(Cc3cccc(Cl)c3)CC2)cc(OC)c1,3.86
15,COc1cc(C(=O)OCc2nc3ccccc3s2)cc(OC)c1OC,1.76
16,CN1CCN(C2CCCCCCC2)CC1,-0.0908
17,O=C(Nc1ccc(F)c(F)c1)C1CC(=O)N(c2ccc(Br)cc2)C1 (centres unmarked),5.63
18,CCCOc1ccc(C2c3c(-c4ccccc4O)n[nH]c3C(=O)N2CCCOC(C)C)cc1OCC (centres unmarked),2.02
19,CC(NC(=O)C1CCCN1S(=O)(=O)c1cccc2nsnc12)c1ccccc1 (centres unmarked),-0.465
20,O=P(O)(CN1CCCCC1)CN1CCCCC1,-2.18
21,CC1=C(C(=O)Nc2ccncc2)C2(CCCCC2)OC1=O,1.55
22,CCC(=O)Nc1nnc(S(=O)(=O)NCc2ccccc2)s1,0.00665
23,CCN(CC)CCN(C)C/C(Cl)=C/c1ccccc1,-6.62
24,CN(C)CCC1Sc2ccccc2Oc2ccccc21 (centres unmarked),-3.45
25,C=CCN1C(=O)NC(=O)/C(=C/c2ccc(OCc3cccc(C)c3)c(OCC)c2)C1=O,3.25
26,Clc1ccc(Cn2cccc2C2=NCCO2)cc1,-1.58

row,SMILES,% Inhibition @ 10 uM [%]
1,CC1CCN(C(=O)CN2N=C(c3ccccc3)CCC2=O)CC1,-1.21
2,O=C(c1ccc(Cl)cc1Cl)C(c1cccnc1)C(O)C(Cl)(Cl)Cl (centres unmarked),2.48
3,Cc1cc(C)c(C)c(OCCCCCCN2CCCCC2)c1,-0.351
4,CCOc1ccccc1N1CCN(Cc2cc(OC)c(O)c(OC)c2)CC1,2.92
5,Cc1cc(C=C2C(=O)NC(=O)NC2=O)c(C)n1-c1ccc(Br)cc1,15.8
6,CCCCN(C)C(=O)C1CCN(C(=O)c2c(C)nn(-c3ccccc3)c2-n2cccc2)CC1,1.8
7,C#CCOc1ccc(Br)cc1C1C(C#N)=C(N)Oc2cc3c(cc21)OCO3 (centres unmarked),-1.17
8,Clc1ccc(CNc2nc3ccccc3[nH]2)cc1Cl,-5.7
9,O=C(COc1ccccc1Cl)Nc1cc(F)ccc1F,0.214
10,FC(F)(F)c1cccc(N2CCN(Cc3ccc(Br)o3)CC2)c1,-3.71
11,Cc1cc(NC(=O)c2cc(-c3ccco3)on2)n(-c2ccccc2)n1,-5.85
12,Cn1c(SCc2nn[nH]n2)nc2c1c(=O)n(Cc1ccccc1Cl)c(=O)n2C,-1.72
13,COc1ccc(OC)c(CN2CCN(Cc3ccc(OC)c(OC)c3)CC2)c1,-3.37
14,Cc1n[nH]c(C)c1CCCCCCOc1cccc(Cl)c1,4.9
15,CC(C)Cc1ccc(C(C)C(=O)NC(C)(C)C)cc1 (centres unmarked),1.7
16,O=C(O)c1ccccc1SCc1cc(=O)n2cc(Br)ccc2n1,-4.01
17,CCC(C)(C)c1ccc(OCC(=O)Nc2ccncc2)cc1,-1.16
18,COc1ccc(Cn2c(C(=O)O)c(CNCC3CCCO3)c3ccccc32)cc1 (centres unmarked),-1.67
19,c1ccc2c(-c3csc(-c4ccncc4)n3)c[nH]c2c1,-0.305
20,O=C(O)CCCn1cc(NC(=O)c2sc3ccccc3c2Cl)cn1,2.99
21,O=C(O)C1CCN(C2CC(=O)N(c3cccc4ccccc34)C2=O)CC1 (centres unmarked),4.78
22,CCC1CCC(N2CCN(c3ccc(F)cc3)CC2)CC1 (centres unmarked),4.51
23,CCCN1CCN(CCCNC(=O)c2ccc(-n3c(C)cc4c3CCCC4)cc2)CC1,-0.878
24,O=S(=O)(Cc1ccccc1Cl)NC1CCCCC1,0.9
25,Cc1ccc(CSCC(=O)N2CCCCC2)cc1,-8.6
26,CC1=C(C(=O)OCC2CCCCC2)C(c2ccccc2F)NC(=O)N1 (centres unmarked),-4.18

row,SMILES,% Inhibition @ 10 uM [%]
1,CC(C)(C)c1cc(CN2CCC(O)CC2)cc(C(C)(C)C)c1O,3
2,O=C(Cn1ncc2ccsc2c1=O)NCc1ccc(Cl)cc1,-2.92
3,CCOc1cc(C(=O)N2CCN(c3ncccn3)CC2)cc(OCC)c1OCC,-2.9
4,Cc1ccc(-c2cc(C(=O)O)c3cc(Br)ccc3n2)s1,1.9
5,CCC(=O)N1C(=O)NC(C)=C(C(=O)OC)C1c1ccccc1 (centres unmarked),1.25
6,CN(C)c1ncnc(Cl)c1C=O,5.1
7,N#Cc1c(N)sc2c1CCC(c1ccccc1)C2 (centres unmarked),16.7
8,CC(=O)NC12CCCC(C(=O)O)(CCC1)C2,6.02
9,O=C(OCc1cccc(COC(=O)c2ccco2)n1)c1ccco1,-1.76
10,Cc1cccc(NC(=O)c2cccc(OC(F)F)c2)c1C,0.163
11,COc1ccc(C2C3=C(O)CCCC3=Nc3nc(SC)nn32)cc1 (centres unmarked),1.73
12,CCN1CCCC1CNC(=O)c1cc2ccc3cccnc3c2[nH]1 (centres unmarked),4.44
13,CC(C)(C)c1ccc(S(=O)(=O)c2cnc3ccc(F)cc3c2O)cc1,-0.0115
14,CC(C)Oc1ccc(CNC(=O)C2CCCN(S(=O)(=O)N3CCCCC3)C2)cc1 (centres unmarked),1.17
15,COc1cc(NS(=O)(=O)c2ccc(C(C)(C)C)cc2)c(OC)cc1Cl,-3.95
16,CCOc1ccc(NC(=O)CC2S/C(=N\c3ccccc3C)N(C)C2=O)cc1 (centres unmarked),-5.67
17,Fc1ccccc1N1CCN(Cc2ccsc2)CC1,-6.36
18,CC(C)CCNc1ncc2c(n1)CC(c1ccccc1Cl)CC2=O (centres unmarked),3.87
19,O=C(O)c1c(CNC2CCCCCC2)c2ccccc2n1Cc1cccc(F)c1,-4.37
20,C1CCN(CCNC2CC3CCC2C3)CC1 (centres unmarked),-1.81
21,CC(c1ccccc1)N1CCC(=O)C2=C1CCC2 (centres unmarked),16.4
22,COc1ccc(CN2CCN(c3ccc(Cl)cc3)CC2)c(OC)c1,0.605
23,C1=C(c2ccccc2)Nc2nonc2N=C1c1ccccc1,6.15
24,CNc1nc(Nc2ccc([N+](=O)[O-])cc2)nc(OCC(F)(F)F)n1,0.968
25,CCCC1CCC(C2=N/C(=C\c3ccccc3)C(=O)O2)CC1 (centres unmarked),2.77
26,O=C(CN1C(=O)c2ccccc2C1=O)Nc1ccccc1C(=O)N1CCCC1,1.49

# Source: paper PMC6919601, “Identification of Plasmodium dipeptidyl aminopeptidase allosteric inhibitors by high throughput screening” (PLoS ONE, 2019)
